Results from patent US20240400720A1 (NOVIMMUNE S A, published 2024).

Tests used:
[1] = target: T1, human CD47 on the cell surface (human, UniProt Q08722); assay: FACS on DS-1 cells (CD19-negative, CD47-positive), human IgG1 format
T1 construct: whole, on cells; also called huCD47; native CD47

human CD19 on Raji cells = target: T2, human CD19 on Raji cells (human, UniProt P15391 20-556); assay: FACS on Raji cells (CD19-positive, CD47-positive), human IgG1 format, 0.01-10 µg/ml
T2 construct: whole, on cells; also called native form of hCD19
T2 sequence (looked up): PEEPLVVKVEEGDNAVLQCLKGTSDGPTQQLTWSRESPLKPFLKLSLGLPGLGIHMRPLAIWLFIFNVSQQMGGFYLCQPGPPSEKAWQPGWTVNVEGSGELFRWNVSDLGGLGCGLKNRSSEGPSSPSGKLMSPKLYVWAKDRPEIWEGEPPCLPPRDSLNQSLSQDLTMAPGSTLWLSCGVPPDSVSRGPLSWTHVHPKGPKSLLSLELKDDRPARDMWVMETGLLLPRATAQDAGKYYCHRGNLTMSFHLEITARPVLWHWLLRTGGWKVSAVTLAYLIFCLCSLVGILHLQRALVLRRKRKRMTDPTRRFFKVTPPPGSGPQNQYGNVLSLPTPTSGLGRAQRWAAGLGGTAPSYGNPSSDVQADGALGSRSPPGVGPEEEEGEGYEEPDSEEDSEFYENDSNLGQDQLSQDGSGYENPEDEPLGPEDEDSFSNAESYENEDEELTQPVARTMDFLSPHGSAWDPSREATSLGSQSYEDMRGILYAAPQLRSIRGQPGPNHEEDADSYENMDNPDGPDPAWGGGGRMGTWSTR

[2] = target: T1, human CD47 on the cell surface; assay: as above

- binding result [1]: no binding (tested: 10 µg/ml)
- binding result (human CD19 on Raji cells): binds
B1: CD19 monovalent C2 (other)
common heavy chain: [no letters for about 120 residues][no letters for about 100 residues][no letters for human IgG1 Fc]
kappa dummy light chain 2: EIVMTQSPATLSVSPGERATLSCRASQTVKNNLAWYQQKPGQAPRLLIYGASTRATGIPARFSGSGSGTEFTLTISSLQSEDFAVYYCQQYNNWLPINPYTFGQGTKVEIKRTVAAPSVFIFPPSDEQLKSGTASVVCLLNNFYPREAKVQWKVDNALQSGNSQESVTEQDSKDSTYSLSSTLTLSKADYEKHKVYACEVTHQGLSSPVTKSFNRGEC
lambda light chain (C2, anti-CD19): NFMLTQPHSVSESPGKTVTISCTRSSGSIEDKYVQWYQQRPGSSPTIVIYYDNERPSGVPDRFSGSIDSSSNSASLTISGLKTEDEADYYCQTYDQSLYGWVFGGGTKLTVLGQPKAAPSVTLFPPSSEELQANKATLVCLISDFYPGAVTVAWKADSSPVKAGVETTTPSKQSNNKYAASSYLSLTPEQWKSHRSYSCQVTHEGSTVEKTVAPTECS
notes: one CD19 arm and one dummy arm, human IgG1; also called monovalent antibody C2

- binding result [2]: binds
B2: CD47 monovalent 5A3M5 (other)
common heavy chain: [no letters for about 120 residues][no letters for about 100 residues][no letters for human IgG1 Fc]
kappa light chain (5A3-M5, anti-CD47): DIQMTQSPSSLSASVGDRVTITCQASQDINKYLNWYQQKPGKAPKLLIYGASRLETGVPSRFSGSGSGTDFTFTISSLQPEDIATYYCQQKHPRYPRTFGQGTKVEIKRTVAAPSVFIFPPSDEQLKSGTASVVCLLNNFYPREAKVQWKVDNALQSGNSQESVTEQDSKDSTYSLSSTLTLSKADYEKHKVYACEVTHQGLSSPVTKSFNRGEC
lambda dummy light chain 1: QSVLTQPPSVSAAPGQKVTISCSGSSSNIETGSVSWYQQLPGTAPKLLIYDNNKRPSGIPDRFSGSKSGTSATLGITGLQTGDEADYYCGTWDDSLPGWVFGGGTKLTVLGQPKAAPSVTLFPPSSEELQANKATLVCLISDFYPGAVTVAWKADSSPVKAGVETTTPSKQSNNKYAASSYLSLTPEQWKSHRSYSCQVTHEGSTVEKTVAPTECS
notes: one CD47 arm and one dummy arm; also called monovalent antibody 5A3-M5

Each block holds one binder with its values, some of them ahead of it.
